# Results as given in PubChem BioAssay AID686978 (National Center for Advancing Translational Sciences (NCATS), 2013).
# Values joined by “and” are separate entries in the source; they are usually repeats but may differ in a detail not shown here. Identical values can stand only once. Among all 420,000 compounds or so, about 64,000 (15%) were called active. The shares of active, inactive and inconclusive entries below differ from those in the screen. The call rests on the fitted dose curve; in most records, active means well fitted inhibition curve with a large enough effect; inconclusive means small, poorly fitted or top-dose-only effect; inactive means flat fitted curve, though single readings scatter. Potencies beside an inconclusive call are fits to weak or partial responses and may not hold up. Peptide text beside a SMILES is read from it. * marks the point of attachment. Boc = CC(C)(C)OC(=O)*
# Assay: qHTS for Inhibitors of human tyrosyl-DNA phosphodiesterase 1 (TDP1): qHTS in cells in absence of CPT; further: nearly all actives have a fitted effect of over 55% in size
# Conditions: DT40 Tdp1-/- hTDP1 cells, no CPT, ATP luminescence, 48 h; activity change, negative = growth inhibition: at 46.2 µM (top of the series) unless noted
# Summary of the method: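 Stably hTDP1-transfected Tdp1-null chicken DT40 cells were treated with library compounds minus camptothecin and grown for at least 48 hr at 37 °C, after which cellular ATP was quantified by luminescence.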
# On the % scale 0 is the no-effect control and ±100 the full control effect; potency means the concentration at half of the fitted maximal effect; tags describe the fitted curve by direction and shape.
SMILES,Potency,"activity change, negative = growth inhibition"
CC(C)(C)C(=O)OCc1ccc(C2=CC(=O)CC(C)(C)C2=O)cc1,"inconclusive: 29.1 µM [inhibitor, single point]",–
CCC(C)(C)C1CCc2[nH]nc(C(=O)N/N=C(\C)c3ccco3)c2C1 (stereo not given),"inconclusive: 29.1 µM [inhibitor, single point]",–
CC(CCc1ccccc1)NC(=O)c1cncc(Br)c1 (stereo not given),"inconclusive: 29.1 µM [inhibitor, single point]",–
Cc1cccc(C(=O)N(C)c2nnc(-c3ccncc3)s2)c1,"inconclusive: 18.4 µM [inhibitor, single point]",–
O=C(Nc1ccccc1[N+](=O)[O-])c1cncc(Br)c1,"inconclusive: 18.4 µM [inhibitor, partial curve]",–
Cc1ccc(NC(=O)CN2C(=O)C3(SCC(=O)N3c3ccc(F)c(F)c3)c3ccccc32)c(C)c1 (stereo not given),"inconclusive: 29.1 µM [inhibitor, single point]",–
CC(=O)c1cc(NC(=O)c2ccc([N+](=O)[O-])cc2)c(=O)oc1C,active: 23.1 µM,–
O=C(Nc1ncc(S(=O)(=O)c2ccc([N+](=O)[O-])cc2)s1)c1ccccc1F,–,inconclusive: -30.7% [inhibitor]
CC(C)(Oc1ccc(Cl)cc1)C(=O)Nc1nc2ccc(S(C)(=O)=O)cc2s1,"inconclusive: 29.1 µM [inhibitor, single point]",–
CCOc1ccc(-n2cc(C(=O)NCc3ccco3)c3cc(OC)c(OC)cc3c2=O)cc1,"inconclusive: 16.4 µM [inhibitor, single point]",–
CCOc1ccccc1OCC(=O)Nc1nc2ccccc2[nH]1,"inconclusive: 18.4 µM [inhibitor, single point]",–
CC1=N/C(=C\c2ccc(OC(C)C)cc2)C(=O)N1c1ccc(C(=O)O)cc1,–,inactive: -13%
O=C(Nc1cccnc1)C1(c2ccc(Cl)cc2)CCCC1,"inconclusive: 23.1 µM [inhibitor, single point]",–
COC(=O)C1=C[C@@H](C(=O)OC)[C@@H]2C3=C(C(=O)C2(C)C)[C@H](c2ccccc2)[C@@H]2C(=O)N(C)C(=O)[C@@H]2[C@@H]3C1,–,inactive: 5.35%
CSc1cc(-c2ccccc2)n(C)c(=O)c1C#N,"inconclusive: 20.6 µM [inhibitor, single point]",–
Cn1cc(S(=O)(=O)NC(c2ccccc2)c2ccccc2)c(=O)n(C)c1=O,–,inactive: -10.4%
CN1/C(=N\O)c2cccc3cccc1c23,"inconclusive: 18.4 µM [inhibitor, partial curve]",–
Cc1ccc(-n2c(SCC(=O)NCc3ccco3)nnc2-c2cccnc2)c(C)c1,–,inactive: -5.6%
COc1ccc(Cl)cc1NC(=O)NCC1CCN(Cc2ccccc2F)CC1,"inactive and inconclusive: 29.1 µM [inhibitor, single point]",–
CCCN(CCC)C(=O)c1ccc2nc(-c3ccc(OC)c(OC)c3)c(-c3ccc(OC)c(OC)c3)nc2c1,"inconclusive: 29.1 µM [inhibitor, single point]",–
Cc1cc(C)cc(SCc2noc(C(=O)NCc3ccccc3)c2C(=O)NCc2ccccc2)c1,"inconclusive: 20.6 µM [inhibitor, single point]",–
COc1cc(OC)c(NC(=S)Nc2cccc(C(C)=O)c2)cc1Cl,"inconclusive: 9.2 µM [inhibitor, partial curve]",–
COc1ccccc1N1CCN(CC(=O)NC(=O)NCc2ccccc2)CC1,"inconclusive: 29.1 µM [inhibitor, single point]",–
Cn1cnc([N+](=O)[O-])c1Sc1n[nH]c(N)n1,–,inactive: -15%

SMILES,Potency,"activity change, negative = growth inhibition"
CCC(C)C(NC(=O)OC(C)(C)C)C(=O)NC(CC(C)C)C(N)=O (stereo not drawn) (Boc-Ile-Leu-NH2; configuration not given here),–,inconclusive: -37.1% [inhibitor]
COc1ccc(CC(=O)Nc2ccc(-c3cn4ccc(C)cc4n3)cc2)cc1,active: 5.17 µM,–
Cn1c(C(=O)N[C@@H](C(=O)O)c2ccccc2)cc2cc(F)ccc21,–,inactive: 12.8%
COc1ccc(CSc2nnc3[nH]c(=O)cc(N)n23)cc1,–,inactive: -6.77%
C=CCn1c(SCC(=O)Nc2ccccc2C)nc2sc(C)c(C)c2c1=O,"inconclusive: 25.9 µM [inhibitor, partial curve]",–
Nc1nc2ncccc2cc1C(=O)NCCc1cccs1,active: 13 µM,–
CC1CN(CC(=O)N2CCc3[nH]c4ccccc4c3C2)CC(C)O1 (stereo not given),"inconclusive: 4.11 µM [inhibitor, full curve]",–
NC(=N\N=Cc1ccco1)/C(N)=N/N=Cc1ccco1,"inconclusive: 13 µM [inhibitor, partial curve]",–
Cc1nc2ccccc2nc(=O)c1NNc1ccc([N+](=O)[O-])cc1,"inconclusive: 32.6 µM [inhibitor, single point]",–
COc1cccc(-c2c(-c3cc(OC)cc(OC)c3)n(C)c3ccc(-c4ccc5[nH]ccc5c4)cc23)c1,"inconclusive: 16.4 µM [inhibitor, partial curve]",–
COC(=O)[C@@]12C[C@@H](CC(=O)N3CCN(C(=O)C4CC4)CC3)C(=O)N(Cc3ccco3)C1=CCC(C)(C)C2,"inconclusive: 23.1 µM [inhibitor, single point]",–
O=C(NNC(=O)c1ccc2ccccc2n1)c1ccc(O)cc1,"inconclusive: 20.6 µM [inhibitor, single point]",–
CCC(C)NC(=O)C1CCCN(C(=O)NC2CCCCC2)C1 (stereo not given),–,inactive: 0.165%
N/C(CN1CCSCC1)=N\OCc1c(F)cccc1Cl,–,inactive: -2.46%
NC1=CC(=O)C(=O)c2ccccc21,active: 16.4 µM,–
COc1ccc(CN2C(=O)C(Cc3ccccc3)Nc3ncnc(N4CCN(c5ccccc5)CC4)c32)cc1 (stereo not given),"inconclusive: 29.1 µM [inhibitor, single point]",–
COc1ccc(C(=O)OCC(=O)N(C)C2CCS(=O)(=O)C2)cc1Br (stereo not given),–,inactive: 19%
CCOc1ccc(OCC)c(NS(=O)(=O)c2cc(-c3onc(C)c3C)ccc2OC)c1,–,inactive: -8.96%
C=C1CCN([C@@H](C)C(=O)NCc2cc(OC)c(OC)c(OC)c2)S(=O)(=O)c2ccccc21,"inconclusive: 29.1 µM [inhibitor, single point]",–
O=S(=O)(c1ccc(Br)cc1)N1CCCc2ccccc21,"inconclusive: 29.1 µM [inhibitor, single point]",–
Cc1occc1-c1nnc(SCC(=O)N2CCN(c3ccccc3)CC2)n1C,–,inactive: -4.18%
CCCCn1c(-c2ccco2)n[nH]c1=S,–,inactive: 1.71%
CSc1nc(=NC(C)=O)ss1,active: 35.5 µM,–
Cc1nn(-c2ccccc2)c(Cl)c1C(=O)NCC(C)c1ccccc1 (stereo not given),"inconclusive: 16.4 µM [inhibitor, single point]",–

SMILES,Potency,"activity change, negative = growth inhibition"
Cc1cc2ccccc2c[n+]1CC(=O)c1ccc(F)cc1,active: 12.6 µM,–
COc1ccc(NC(=O)C(CC(C)C)NC(=O)C2CCC(C)CC2)c(OC)c1 (stereo not given),"inconclusive: 29.1 µM [inhibitor, single point]",–
CCCC/C(O)=C1\C(=O)CC(C)(C)CC1=Nc1ccccc1OC,"inconclusive: 25.9 µM [inhibitor, single point]",–
O=C(C1CCN(S(=O)(=O)c2cccc3cccnc23)CC1)N1CCN(c2ccc(Cl)cc2)CC1,"inconclusive: 20.6 µM [inhibitor, single point]",–
O=C(O)CN1C(=O)c2ccc(C(=O)c3ccccc3)cc2C1=O,–,inactive: 7.16%
COc1cccc(/C=N/n2nnnc2N)c1OCC#N,–,inactive: -5.2%
CC1(C)CC(CCNC(=O)CCl)(c2ccccc2)CCO1 (stereo not given),–,inactive: 4.97%
O=C(NNC(=S)Nc1cccc2ccccc12)c1cccc(Br)c1,"inconclusive: 20.6 µM [inhibitor, single point]",–
COc1ccc(N2CCN(C(=O)c3cc(S(=O)(=O)N4CCC(C)CC4)cn3C)CC2)cc1,active: 20.6 µM,–
CC(C)N(C(=O)CSc1nc2ccccc2n1Cc1ccc(F)cc1)C(C)C,"inconclusive: 29.1 µM [inhibitor, single point]",–
O=c1c2cc(Cl)cc(Cl)c2nc2n1CCC2,–,inactive: -3.92%
CC1(C(=O)Nc2ccc3ccccc3c2)CCC(=O)N1C1CCN(Cc2ccccc2)CC1 (stereo not given),"inconclusive: 20.6 µM [inhibitor, single point]",–
COc1ccc(-n2ccnc(NCc3ccc(C)cc3)c2=O)cc1OC,"inconclusive: 16.4 µM [inhibitor, partial curve]",–
O=C(N/N=C/c1c(O)ccc2ccccc12)c1ccc(Br)o1,active: 4.61 µM,–
CCN(C(=O)C1CCN(c2ncnc3c2nc2n3CCCCC2)CC1)c1cccc(Cl)c1,"inconclusive: 20.6 µM [inhibitor, single point]",–
COc1ccc(N2CCN(C(=O)CSc3nc4cc(OC)c(OC)cc4cc3C#N)CC2)cc1,"inconclusive: 29.1 µM [inhibitor, single point]",–
O=C(NCCN1CCN(c2ccccc2)CC1)C1CCN(S(=O)(=O)c2cccs2)CC1,"inconclusive: 20.6 µM [inhibitor, partial curve]",–
COc1ccc(/C=N/NC(=O)c2nc(Cl)c(Cl)c(N)c2Cl)cc1COc1ccccc1F,"inconclusive: 29.1 µM [inhibitor, single point]",–
O=C(NCc1cccs1)c1ccc([N+](=O)[O-])cc1,"inconclusive: 9.2 µM [inhibitor, partial curve]",–
COc1cccc(-c2ccc(NC(=O)C3CCCN(Cc4cnn(C)c4C)C3)cc2)c1 (stereo not given),"inconclusive: 18.4 µM [inhibitor, single point]",–
Cc1ccc(NS(=O)(=O)N(C)C)cc1,–,inactive: -26.8%
COc1ccc(N(CC(=O)N2CCN(c3ccccc3F)CC2)S(=O)(=O)c2c(C)n[nH]c2C)cc1,"inconclusive: 32.6 µM [inhibitor, single point] and inconclusive: 8.2 µM [inhibitor, partial curve]",–
